Assay results taken from patent publication US20220267438A1 (Janssen / Centocor, published 2022).

Key:
[1] = molecular target: T1, human GPRC5D (G-protein coupled receptor family C group 5 member D) on cells (human, UniProt Q9NZD1 1-345); experiment: flow cytometry, H929 BCMA KO cells, 1 h 37C; Run 5
T1 construct: Target on H929 or MM.1R BCMA knockout cells, K562 cells expressing human GPRC5D and HEK293 cells of the cell microarray
Experimental: First, FACS-based binding for GPRC5D and BCMA binding arms of the trispecific molecule was determined by measuring the effective concentration (EC) range from a dose-response curve using a 4-parameter fit at 37° C. for 1 hr. This was assessed using an H929 suite of cells (WT, GPRC5D-KO, BCMA-KO, and GPRC5D/BCMA KO), and a similar MM.1R suite. Cell based EC₅₀ is approximately 13 nM for WT H929 (FIGS. 2A-2D, Table 7) and 2.4 nM for WT MM.1R (FIGS. 3A-3D, Table 8). A clear avidity affect is observed as EC₅₀ and Bmax are both reduced in GPRC5D-KO and BCMA-KO lines which test monovalent binding of target binding arms (Table 7). Next, cell-based EC₅₀ was determined for the CD3-binding Fab arm using purified Pan T cells from three random donors. […] Next, dose responsive binding was assessed at 4° C. to remove any potential biological effects. As shown in FIGS. 5A-5C, binding is stronger (50-100 nM) at 4° C., compared to 37° C., which may indicate internalization. Additionally, two expression lots of BGCB463 (BGCB463.003 from transient transfection and BGCB463.004 from a stable transfection pool), were directly compared with binding to H929, MM.1R, and Pan T cells and no differences were noted (FIGS. 6A-6C).

[2] = molecular target: T2, human CD3 (CD3ε of the TCR/CD3 complex) on primary human pan T cells (human, UniProt P07766); experiment: flow cytometry, human pan T cells, Donor 2, 1 h 37C; Run 4
T2 construct: whole, on cells; On T cells CD3ε stands in the whole TCR/CD3 complex
Experimental: For binding of BGCB463 to human and cynomolgus Pan T cells, three human donors (Hemacare) were selected, quickly thawed, resuspended, and aliquoted into a 96-well plate at 1×10⁶ cells/mL. Cells were then washed, Fc blocked if necessary (Innovex), and stained with viability dye (Invitrogen). BGCB463 and its corresponding isotype (B23B251) were diluted in complete media to an initial concentration of 2 μM and 1:3 serial dilutions in duplicate were performed for a dose-response curve. The cells were incubated with molecules at 4° C. or 37° C. for 1 hour. When necessary, incubation with 90% human serum (Sigma) was also performed as described above.
First, FACS-based binding for GPRC5D and BCMA binding arms of the trispecific molecule was determined by measuring the effective concentration (EC) range from a dose-response curve using a 4-parameter fit at 37° C. for 1 hr. This was assessed using an H929 suite of cells (WT, GPRC5D-KO, BCMA-KO, and GPRC5D/BCMA KO), and a similar MM.1R suite. Cell based EC₅₀ is approximately 13 nM for WT H929 (FIGS. 2A-2D, Table 7) and 2.4 nM for WT MM.1R (FIGS. 3A-3D, Table 8). […] Next, cell-based EC₅₀ was determined for the CD3-binding Fab arm using purified Pan T cells from three random donors. […] Next, dose responsive binding was assessed at 4° C. to remove any potential biological effects. […]

[3] = molecular target: T3, human BCMA (B cell maturation antigen, TNFRSF17) on cells (human, UniProt Q02223 1-184); experiment: flow cytometry, MM.1R GPRC5D KO cells, 1 h 37C; average of runs
T3 construct: whole, on cells; Target on H929 or MM.1R GPRC5D knockout cells, K562 cells expressing human BCMA, HEK293 cells of the cell microarray, and BCMA-only lymphoma lines; also called CD269; surface BCMA
T3 sequence (looked up): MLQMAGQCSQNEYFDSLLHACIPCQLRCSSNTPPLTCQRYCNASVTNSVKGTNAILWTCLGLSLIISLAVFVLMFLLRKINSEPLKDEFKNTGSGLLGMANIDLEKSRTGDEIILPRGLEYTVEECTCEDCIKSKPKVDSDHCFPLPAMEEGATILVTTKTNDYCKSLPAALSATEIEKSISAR

T2 sequence (P07766 23-207, one chain of several): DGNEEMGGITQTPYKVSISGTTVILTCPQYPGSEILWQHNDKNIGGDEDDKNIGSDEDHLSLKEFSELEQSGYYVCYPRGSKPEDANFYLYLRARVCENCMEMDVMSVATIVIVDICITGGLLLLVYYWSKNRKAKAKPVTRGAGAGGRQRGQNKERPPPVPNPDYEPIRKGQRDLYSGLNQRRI
T1 sequence (Q9NZD1 whole entry): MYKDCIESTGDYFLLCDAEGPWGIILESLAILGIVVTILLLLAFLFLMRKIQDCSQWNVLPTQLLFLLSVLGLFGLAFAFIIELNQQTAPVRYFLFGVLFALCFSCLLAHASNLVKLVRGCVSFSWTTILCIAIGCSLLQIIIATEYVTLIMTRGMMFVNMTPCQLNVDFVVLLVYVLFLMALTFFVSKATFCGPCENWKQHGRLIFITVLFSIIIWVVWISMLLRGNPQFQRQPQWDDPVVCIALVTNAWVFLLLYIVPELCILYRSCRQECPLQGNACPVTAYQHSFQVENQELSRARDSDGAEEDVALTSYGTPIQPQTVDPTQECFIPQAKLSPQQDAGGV

B1: BGCB463 (other)
heavy: QVQLQQSGPRLVRPSQTLSLTCAISGDSVFNNNAAWSWIRQSPSRGLEWLGRTYYRSKWLYDYAVSVKSRITVNPDTSRNQFTLQLNSVTPEDTALYYCARGYSSSFDYWGQGTLVTVSSASTKGPSVFPLAPSSKSTSGGTAALGCLVKDYFPEPVTVSWNSGALTSGVHTFPAVLQSSGLYSLSSVVTVPSSSLGTQTYICNVNHKPSNTKVDKKVEPKSCDKTHTCPPCPAPEAAGGPSVFLFPPKPKDTLMISRTPEVTCVVVSVSHEDPEVKFNWYVDGVEVHNAKTKPREEQYNSTYRVVSVLTVLHQDWLNGKEYKCKVSNKALPAPIEKTISKAKGQPREPQVYTLPPSREEMTKNQVSLSCAVKGFYPSDIAVEWESNGQPENNYKTTPPVLDSDGSFFLVSKLTVDKSRWQQGNVFSCSVMHEALHNRFTQKSLSLSPGK
light: QSALTQPASVSGSPGQSITISCTGTSSNIGTYKFVSWYQQHPDKAPKVLLYEVSKRPSGVSSRFSGSKSGNTASLTISGLQAEDQADYHCVSYAGSGTLLFGGGTKLTVLGQPKAAPSVTLFPPSSEELQANKATLVCLISDFYPGAVTVAWKADSSPVKAGVETTTPSKQSNNKYAASSYLSLTPEQWKSHRSYSCQVTHEGSTVEKTVAPTECS
chain: [letters of about 100 residues not shown]QFPHTFGQGTKLEIKGGSEGKSSGSGSESKSTGGSQVTLKESGPVLVKPTETLTLTCTVSGFSLTNIRMSVSWIRQPPGKALEWLAHIFSNDEKSYSTSLKSRLTISRDTSKSQVVLTLTNVDPVDTATYYCARMRLPYGMDVWGQGTTVTVSSEPKSSDKTHTCPPCPAPEAAGGPSVFLFPPKPKDTLMISRTPEVTCVVVSVSHEDPEVKFNWYVDGVEVHNAKTKPREEQYNSTYRVVSVLTVLHQDWLNGKEYKCKVSNKALPAPIEKTISKAKGQPREPQVYTLPPSREEMTKNQVSLWCLVKGFYPSDIAVEWESNGQPENNYKTTPPVLDSDGSFFLYSKLTVDKSRWQQGNVFSCSVMHEALHNHYTQKSLSLSPGKGGSEGKSSGSGSESKSTGGSEIVLTQSPGTLSLSPGERATLSCRASQSISSSFLTWYQQKPGQAPRLLIYGASSRATGIPDRFSGGGSGTDFTLTISRLEPEDFAVYYCQHYGSSPMYTFGQGTKLEIKGGSEGKSSGSGSESKSTGGS[letters of about 100 residues not shown]DEGYSSGHYYGMDVWGQGTTVTVSS
notes: Trispecific IgG1 antibody (L234A, L235A, D265S); Heavy chain 1 = anti-CD3 (CD3B376) Fab heavy chain with hole and RF mutations; also called BGCB463.003; BGCB463.004
EC50 [1]: 48.8 nM
EC50 [2]: 192 nM
EC50 [3]: 316 nM
